Assay results reported in PubChem BioAssay AID1347071 (National Center for Advancing Translational Sciences (NCATS), 2019).
The whole screen tested about 410,000 compounds, of which about 260 (0.063%) were called active. The inconclusive results got no clear call from the source; some entries with a clear call stand among them for comparison. Calls follow the shape of the dose curve; as a rule, active = well fitted activation curve with a large enough effect; inconclusive = small, poorly fitted or top-dose-only effect; inactive = no such curve, though single readings can be large or run the other way. No potency is given beside an inconclusive call; the fits are too rough.
Potency is read from the fitted curve at half-maximal effect; tags tell the direction and shape of the fitted curve.

Experiment: qHTS for compounds that reverse cellular toxicity of Amyloid beta (A-beta) peptide in yeast: Primary Screen; also: nearly all actives have a fitted effect of over 55% in size
Conditions: yeast expressing A-beta42, growth rescue, OD600, 48 h; growth rescue: at 46.1 µM (top of the series), 0% DMSO, 100% iron-clioquinol control
Method in brief: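 Yeast A-beta toxicity model in growth medium with pinned compounds, 48 h at 30 C; growth read as absorbance at 600 nm. Normalized to FeCl3/clioquinol equimolar mix (positive) and DMSO (negative).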
With `CC1(C)C(=O)NCCN1C(=O)CC1C(=O)NCCN1Cc1cccc(C(F)(F)F)c1` (stereo unspecified) the Potency was “inactive”.
For `S=C(NCc1ccco1)N1CCN(c2ccc(Cl)cc2)CC1`, the Potency was inconclusive [activator, partial curve, poor fit].
For `CC12CC(O)C3C(CCC4=CC(=O)CCC43C)C1CCC2=CCO` (stereo unspecified), the Potency was inconclusive [activator, full curve].
In the case of `CCCCCCCNc1cccc(C)c1`, the Potency is reported as “inactive”.
For `CCCCc1ccc(NC(=S)NCc2ccc(OC)cc2)cc1`, the Potency was inconclusive [activator, single point].
With `CCN(Cc1ccccc1)C(=O)COC(=O)CNS(=O)(=O)c1ccc(C)cc1` the Potency was inconclusive [activator, full curve].
For `CCOC(=O)c1sc(Nc2nc3cc4c(cc3s2)OCO4)cc1C`, the Potency was “inactive”.
For `Cc1c(Cl)cccc1NC(=S)N=Nc1c(O)n(CN2CCOCC2)c2ccccc12`, the Potency was active: 22.4 µM.
In the case of `O=C(CSc1nc2ccsc2c(=O)n1Cc1ccc(F)cc1)NCc1ccc(Cl)cc1`, the Potency is reported as “inactive”.
For `CCN(CC)CCCNc1nc2cc(OC)c(OC)cc2c2nc(-c3ccccc3)nn12`, the Potency was “inactive”.
For `CCCC(=O)Nc1cc2c(cc1C(=O)c1ccccc1)OCCO2`, the growth rescue was inconclusive: 28.3% [activator].
With `O=C(COC(=O)c1ccc(Cl)c(Cl)c1)Nc1cccnc1Cl` the Potency was inconclusive [activator, partial curve, poor fit].
In the case of `Cc1ccnc(SCC(=O)c2ccc(Br)cc2)c1C#N`, the Potency is reported as inconclusive [activator, partial curve, poor fit].
For `O=C1c2ccccc2C(=O)N1CCCCN(C(=O)c1cc([N+](=O)[O-])cc([N+](=O)[O-])c1)c1ccc(Cl)cc1`, the Potency was inconclusive [activator, full curve, poor fit].
In the case of `O=C(CCCCCn1c(=S)[nH]c2cc3c(cc2c1=O)OCO3)N1CCN(C2CCCCC2)CC1`, the Potency is reported as inconclusive [activator, full curve].
For `Nc1nc(CSC(=S)N2CCCCC2)nc(Nc2ccccc2)n1`, the Potency was inconclusive [activator, partial curve].
In the case of `Cc1ccc(NC(=O)C2SC(=Nc3ccccc3)C(C(=O)Nc3ccc(Cl)cc3)=C2N)cc1` (stereo unspecified), the Potency is reported as inconclusive [activator, single point].
For `COc1ccc(Cl)cc1NC(=O)COC(=O)C1CC1`, the Potency was inconclusive [activator, partial curve].
With `COc1ccc(N2CCN(C(=O)CSc3nnc4c(C)cc5cc(C)ccc5n34)CC2)cc1` the Potency was “inactive”.
For `CCC(C)c1ccc(NC(=S)NC(C)C2CCCO2)cc1` (stereo unspecified), the Potency was inconclusive [activator, single point].
With `C/C=C/C=C/C(=O)N1CC[C@]23c4ccccc4N[C@H]4N(C)c5cccc6c5[C@]42CCN([C@H]6C2OC2(C)C)[C@H]13` (stereo partly specified) the Potency was inconclusive [activator, partial curve, poor fit].
For `Cc1cc(-c2ccccc2)n(-c2cc(N/N=C/c3ccccc3O)ncn2)n1`, the Potency was inconclusive [activator, full curve].
With `CCc1nnc2c(N3CCN(c4cccc(C)c4)C(C)C3)nc3ccccc3n12` (stereo unspecified) the Potency was “inactive”.
In the case of `CCOc1cccc2sc(N3CCN(C(=O)c4ccc5ncsc5c4)CC3)nc12`, the Potency is reported as inconclusive [activator, full curve, poor fit].
With `O=C(OC(C(=O)NCc1ccco1)c1ccc(Cl)cc1)c1cccs1` (stereo unspecified) the Potency was inconclusive [activator, partial curve].
With `Cc1cc(NC(=O)CCC(=O)N(c2ccc(C)c(F)c2)C(C(=O)NC2CCCC2)c2ccco2)no1` (stereo unspecified) the Potency was inconclusive [activator, full curve, poor fit].
In the case of `C/C(=N\Nc1ccccn1)c1ccc(Br)s1`, the Potency is reported as inconclusive [activator, single point].
With `Cc1nn(C(=O)c2ccccc2F)c(C)c1S(=O)(=O)N1CCOCC1` the Potency was “inactive”.
With `CCCn1c(S(=O)(=O)O)nc2ccccc21` the Potency was “inactive”.
In the case of `COc1ccccc1/C=C/C(=O)OCC(=O)N1c2ccccc2CC1C` (stereo unspecified), the Potency is reported as inconclusive [activator, partial curve, poor fit].
In the case of `O=C(CCc1ccccc1)NC(=S)NCc1ccco1`, the Potency is reported as inconclusive [activator, partial curve, poor fit].
For `O=C(Nc1ccccc1Sc1ccccc1)c1ccc(F)cc1`, the Potency was active: 14.1 µM.
In the case of `Cc1onc(-c2ccccc2)c1C(=O)/C=C/N(C)C`, the Potency is reported as inconclusive [activator, single point].
In the case of `COc1ccccc1-c1cc(C(F)(F)F)nc(S(=O)(=O)CCCC(=O)Nc2cccnc2Cl)n1`, the Potency is reported as “inactive”.
For `CCc1ccccc1NC(=S)N(Cc1ccco1)C(C)c1cccs1` (stereo unspecified), the Potency was inconclusive [activator, single point].
In the case of `S=c1[nH]nc(CCc2ccccc2)n1-c1ccc(Cl)cc1`, the Potency is reported as inconclusive [activator, single point].
In the case of `O=C(O)CC12CC3CC(C1)CC(n1cncn1)(C3)C2`, the Potency is reported as “inactive”.
In the case of `COc1ccc(NCc2ccccc2-c2nnc(-c3ccccc3)o2)cc1Cl`, the Potency is reported as “inactive”.
With `O=[N+]([O-])c1cccc(-c2ccc(/C=N/NC(=S)Nc3cccc(F)c3)o2)c1` the Potency was inconclusive [activator, single point].
In the case of `S=C(NCc1ccccc1)NC1CCCCC1`, the Potency is reported as inconclusive [activator, single point].
For `CCC(=O)NC(Cc1ccccc1)c1nc2ccccc2[nH]1` (stereo unspecified), the Potency was “inactive”.
With `CCN(CC)CCCNc1nc2ccccc2[nH]1` the growth rescue was inconclusive: 30.3% [activator].
In the case of `Cn1ccc(C(=O)Nc2sc3c(c2C#N)CCC3)n1`, the Potency is reported as “inactive”.
With `Cc1cccc(N2C(=O)C(Oc3ccc(Cl)cc3Cl)C2C=O)c1C` (stereo unspecified) the Potency was “inactive”.
In the case of `CCC(C)NC(=O)CN1C(=O)c2cccnc2Sc2ccccc21` (stereo unspecified), the Potency is reported as “inactive”.
For `CC(C)NC(=O)NC(=O)COc1ccc(Br)cc1Br`, the Potency was inconclusive [activator, partial curve, poor fit].
